Assay results reported in article PMC8138007.
No constants are given. Whether binding was seen depends on the method and setting. In cells and extracts the contact can be indirect. Some results given as binding are weak or reduced against the parent protein; the word gives no strength. For some assays here: Tags and fused reporters may be left off the sequences shown.

Chains of the proteins cited; added tags and fusions are not shown. Lines headed by an entry give the natural chain unless they say otherwise; changes in a name come on top. A line that says so, or that is headed by a name, gives the form on record, which may keep a tag or linker.
UniProt P14618: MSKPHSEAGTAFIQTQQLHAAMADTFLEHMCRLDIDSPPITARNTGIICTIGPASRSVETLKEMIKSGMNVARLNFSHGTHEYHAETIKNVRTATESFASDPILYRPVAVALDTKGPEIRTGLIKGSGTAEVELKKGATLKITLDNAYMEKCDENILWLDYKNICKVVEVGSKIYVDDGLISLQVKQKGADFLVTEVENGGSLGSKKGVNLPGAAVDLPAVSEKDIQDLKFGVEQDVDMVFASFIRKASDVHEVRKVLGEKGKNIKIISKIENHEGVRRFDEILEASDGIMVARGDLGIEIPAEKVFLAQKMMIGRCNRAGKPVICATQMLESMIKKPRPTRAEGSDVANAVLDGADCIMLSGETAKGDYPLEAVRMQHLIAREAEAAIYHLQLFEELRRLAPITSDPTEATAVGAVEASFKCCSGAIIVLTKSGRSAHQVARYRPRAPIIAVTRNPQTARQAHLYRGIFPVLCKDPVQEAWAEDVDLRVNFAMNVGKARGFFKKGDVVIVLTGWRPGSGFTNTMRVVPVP
Pyruvate kinase M1 isoform (PKM1), endogenous (P14618-2, form named): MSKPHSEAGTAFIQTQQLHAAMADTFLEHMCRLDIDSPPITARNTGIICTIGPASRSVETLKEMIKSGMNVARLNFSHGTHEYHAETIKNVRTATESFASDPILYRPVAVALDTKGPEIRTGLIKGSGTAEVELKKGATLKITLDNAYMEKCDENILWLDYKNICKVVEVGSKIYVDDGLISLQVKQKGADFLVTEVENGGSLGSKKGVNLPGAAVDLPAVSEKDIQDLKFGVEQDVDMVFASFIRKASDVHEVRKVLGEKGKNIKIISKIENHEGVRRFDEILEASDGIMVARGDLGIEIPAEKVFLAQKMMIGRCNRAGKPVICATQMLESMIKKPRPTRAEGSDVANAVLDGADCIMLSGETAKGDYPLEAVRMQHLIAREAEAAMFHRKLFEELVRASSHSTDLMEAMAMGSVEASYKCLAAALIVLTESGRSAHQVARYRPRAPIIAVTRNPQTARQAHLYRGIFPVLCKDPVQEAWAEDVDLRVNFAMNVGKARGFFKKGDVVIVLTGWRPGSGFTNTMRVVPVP
UniProt P30613: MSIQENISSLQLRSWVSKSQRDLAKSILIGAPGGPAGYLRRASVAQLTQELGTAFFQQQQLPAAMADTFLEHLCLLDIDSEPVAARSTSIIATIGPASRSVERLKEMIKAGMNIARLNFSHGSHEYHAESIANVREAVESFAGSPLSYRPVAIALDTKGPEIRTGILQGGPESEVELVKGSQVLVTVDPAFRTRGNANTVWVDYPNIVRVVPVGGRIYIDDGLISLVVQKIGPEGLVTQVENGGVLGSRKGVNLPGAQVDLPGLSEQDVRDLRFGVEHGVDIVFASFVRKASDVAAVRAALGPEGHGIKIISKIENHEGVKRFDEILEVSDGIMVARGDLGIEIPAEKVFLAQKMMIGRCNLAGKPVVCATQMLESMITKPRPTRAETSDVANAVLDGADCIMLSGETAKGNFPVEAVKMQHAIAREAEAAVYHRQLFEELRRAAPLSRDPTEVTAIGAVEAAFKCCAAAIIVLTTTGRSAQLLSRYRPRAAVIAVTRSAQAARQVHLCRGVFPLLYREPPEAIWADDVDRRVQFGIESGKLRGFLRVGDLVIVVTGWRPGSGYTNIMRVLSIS

T1: Testes-specific protease 50 (TSP50), endogenous (human (endogenous in Huh7 and Bel7402)) (UniProt Q9UI38)
T1 sequence: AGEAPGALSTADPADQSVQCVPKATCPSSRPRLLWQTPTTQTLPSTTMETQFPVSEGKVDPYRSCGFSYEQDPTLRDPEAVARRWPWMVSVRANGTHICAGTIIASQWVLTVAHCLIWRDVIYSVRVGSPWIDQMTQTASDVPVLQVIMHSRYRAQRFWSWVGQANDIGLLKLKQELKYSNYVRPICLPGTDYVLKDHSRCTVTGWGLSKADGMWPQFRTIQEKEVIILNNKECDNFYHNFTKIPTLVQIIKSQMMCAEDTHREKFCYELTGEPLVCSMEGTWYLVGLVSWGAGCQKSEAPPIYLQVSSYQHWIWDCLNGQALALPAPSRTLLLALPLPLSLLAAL

T2: GST-tagged TSP50 (human) (UniProt Q9UI38)
T2 sequence: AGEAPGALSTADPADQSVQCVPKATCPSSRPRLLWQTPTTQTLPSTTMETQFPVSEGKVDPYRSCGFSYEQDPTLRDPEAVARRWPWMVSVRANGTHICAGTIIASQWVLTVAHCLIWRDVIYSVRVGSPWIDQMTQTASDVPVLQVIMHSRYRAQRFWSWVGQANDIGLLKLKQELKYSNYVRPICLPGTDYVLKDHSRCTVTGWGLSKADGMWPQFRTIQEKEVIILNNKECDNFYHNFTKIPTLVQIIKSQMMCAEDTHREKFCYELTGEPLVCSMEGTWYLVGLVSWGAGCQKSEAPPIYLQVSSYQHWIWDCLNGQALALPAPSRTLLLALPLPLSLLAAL


Legend:
[1] = biological target: T1, Testes-specific protease 50 (TSP50), endogenous (human (endogenous in Huh7 and Bel7402)); experiment: co-IP; Huh7 and Bel7402 cells, immunoprecipitation with anti-TSP50 antibody (Pierce Crosslink Immunoprecipitation kit), Western blot with anti-PKM2, anti-PKM1 or anti-PKLR
[2] = biological target: T2, GST-tagged TSP50 (human); experiment: pull-down; GST-TSP50 as bait on gel suspension, mixed with target protein in GST pull-down binding buffer at 4 °C overnight; Western blot with anti-PKM2 and anti-GST; methods: total protein of Huh7 or Bel7402 cells (RIPA); legend: proteins purified in B21 bacteria; only the target purified
[3] = biological target: Pyruvate kinase M2 isoform (PKM2), endogenous (human (endogenous in Huh7, Bel7402 and L02)) (UniProt P14618); experiment: co-IP; IP with anti-PKM2 from L02 cells (TSP50 overexpressed) and Huh7 and Bel7402 cells (TSP50 knocked down), Western blot for KAT9 and SIRT2

binding [1] | also measured | Molecule
binds |  | Pyruvate kinase M2 isoform (PKM2), endogenous (from UniProt P14618 1-531) (enzyme)
no binding |  | PKL/R, endogenous (from UniProt P30613 1-574) (enzyme)
no binding |  | Pyruvate kinase M1 isoform (PKM1), endogenous (from UniProt P14618-2 1-531) (enzyme)
 | binding [2]: binds | Flag-tagged PKM2 (from UniProt P14618 1-531) (enzyme)
 | binding [3]: binds | Deacetylase SIRT2, endogenous (enzyme, UniProt Q8IXJ6 1-389) MAEPDPSHPLETQAGKVQEAQDSDSDSEGGAAGGEADMDFLRNLFSQTLSLGSQKERLLDELTLEGVARYMQSERCRRVICLVGAGISTSAGIPDFRSPSTGLYDNLEKYHLPYPEAIFEISYFKKHPEPFFALAKELYPGQFKPTICHYFMRLLKDKGLLLRCYTQNIDTLERIAGLEQEDLVEAHGTFYTSHCVSASCRHEYPLSWMKEKIFSEVTPKCEDCQSLVKPDIVFFGESLPARFFSCMQSDFLKVDLLLVMGTSLQVQPFASLISKAPLSTPRLLINKEKAGQSDPFLGMIMGLGGGMDFDSKKAYRDVAWLGECDQGCLALAELLGWKKELEDLVRREHASIDAQSGAGVPNPSTSASPKKSPPPAKDEARTTEREKPQ
